The data scatter; read single values as rough.
B1: Ydj1; a variant is named by its letters at X, in order (parent)
chain: MVKETKFYDILGVPVTATDVEIKKAYRKCALKYHPDKNPSEEAAEKFKEASAAYEILSDPEKRDIYDQFGEDGLSGAGGAGGFPGGGFGFGDDIFSQFFGAGGAQRPRGPQRGKDIKHEISASLEELYKGRTAKLALNKQILCKECEGRGGKKGAVKKCTSCNGQGIKFVTRQMGPMIQRFQTECDVCHGTGDIIDPKDRCKSCNGKKVENERKILEVHVEPGMKDGQRIVFKGEADQAPDVIPGDVVFIVSERPHKSFKRDGDDLVYEAEIDLLTAIAGGEFALEHVSGDWLKVGIVPGEVIAPGMRKVIEGKGMPIPKYGGYGNLIIKFTIKFPENHFTSEENLKKLEEILPPRIVPAIPKKATVDECVLADFDPAKYNRTRASRGGANYDSDEEEQGGEGVQCXXX

Variants of: B1
Test: enrichment factor, frequency at 37 °C / frequency at 25 °C (thermotolerance selection) (ratio); higher = more growth at 37 °C, higher likelihood of farnesylation
Conditions: with Saccharomyces cerevisiae ydj1Δ (yWS304); selective temperature 37 °C; reference temperature 25 °C
Experimental: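 Pooled library of all 8,000 Ydj1-CXXX C-terminal motif variants (native CASQ replaced by C + three variable residues, one codon per amino acid) expressed from a CEN plasmid in S. cerevisiae ydj1Δ (yWS304). The library was grown in SC-Ura liquid to A600 ~2 (~8 generations) at permissive 25 °C or selective 37 °C. Reads from 8 and 7 replicates were pooled and variants counted by NGS. Enrichment factor = frequency at 37 °C / frequency at 25 °C, with a +1 correction; it reports Ydj1-dependent thermotolerance, used as a read-out of farnesylation by yeast FTase.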

Variant	enrichment factor
AAY	2.32
AAV	1.73
AAW	1.7
LCK	0.946
LCH	0.477
LCC	1.45
LCI	0.281
LCD	1.46
LCN	0.923
LCP	0.236
LCF	0.695
LCM	0.827
LCA	0.572
LCQ	0.843
LCL	0.29
LCG	0.353
LCE	1.53
NCC	0.298
NCA	0.869
NCP	0.156
NCN	1.63
NCL	1.51
NCK	0.506
NCG	1.45

Variant	enrichment factor
NCE	0.867
NCM	1.33
NCD	0.805
NCH	2.33
NCF	0.957
NCI	0.499
CCK	0.657
CCI	0.334
CCM	0.886
CCL	0.804
CCG	0.165
CCF	2.32
CCC	0.65
CCD	2.21
CCE	2.41
CCP	0.371
CCN	0.354
CCH	0.178
CCA	0.677
QAY	1.93
QAW	1.7
QAV	1.59
HAV	2.19
HAY	2.23

Variant	enrichment factor
HAW	1.4
ACG	1.21
ACA	0.211
ACC	0.184
ACM	1.7
ACN	1.82
ACE	2.02
ACK	1.68
ACI	0.73
ACF	0.356
ACP	0.212
ACD	2.06
ACQ	0.94
ACH	1.12
ACL	1.18
LAV	1.78
LAW	1.73
LAY	2.27
QCL	1.56
QCF	0.568
QCG	1.27
QCI	0.629
QCM	0.95
QCD	1.41

Variant	enrichment factor
QCA	0.463
QCN	1.65
QCC	0.235
QCP	0.2
QCH	2.03
QCE	1.7
QCK	1
EAW	1.57
EAV	1.17
EAY	1.46
DAY	1.02
DAW	0.499
DAV	0.755
DAT	0.277
KCD	2.6
KCG	1.29
KCQ	0.369
KCP	0.196
KCK	0.204
KCH	1.65
KCC	0.169
KCL	0.523
KCM	0.647
KCN	2.34

Variant	enrichment factor
KCF	0.632
KCE	1.72
KCI	0.217
KCA	0.772
RCD	2.59
RCI	0.52
RCA	0.579
RCP	0.0824
RCE	1.88
RCN	0.927
RCC	0.241
RCF	0.366
RCK	0.994
RCH	2.36
RCM	1.51
RCG	1.25
RCL	0.734
ICQ	1
ICA	0.637
ICE	1.04
ICH	0.735
ICN	0.922
ICP	0.137
ICK	1.24

Variant	enrichment factor
ICD	1.36
ICF	0.405
ICC	0.463
ICI	0.734
ICM	0.724
ICG	0.837
ICL	0.699
HCG	1.24
HCF	0.515
HCP	1.61
HCE	2.23
HCK	0.312
HCN	1.41
HCL	0.944
HCM	2.28
HCA	1.16
HCI	1.01
HCD	1.41
HCC	0.153
HCQ	0.948
HCH	2.97
WAW	1.01
WAT	1.68
WAV	1.11

Variant	enrichment factor
WAY	1.86
YCF	0.927
YCP	1.83
YCD	1.07
YCA	1.45
YCI	1.32
YCE	1.69
YCM	1.62
YCL	1.36
YCG	2.32
YCC	1.16
YCK	0.251
YCN	4.21
YCH	2.35
RAV	1.31
RAY	1.09
RAW	1.06
GCP	0.158
GCC	0.204
GCG	2.13
GCI	0.29
GCH	1.43
GCE	0.479
GCQ	1.78

Variant	enrichment factor
GCM	1.82
GCF	1.54
GCN	2.09
GCD	0.319
GCK	0.124
GCL	0.927
GCA	0.579
FCF	0.579
FCE	0.576
FCG	1.62
FCA	2.15
FCP	1.95
FCL	1.16
FCQ	2.78
FCC	0.993
FCD	0.991
FCI	2.9
FCN	3.23
FCH	0.869
FCM	0.579
FCK	0.159
CAY	2.03
CAV	0.356
CAW	0.724

Variant	enrichment factor
PCC	0.145
PCM	0.908
PCG	0.531
PCH	0.676
PCL	1.46
PCA	0.414
PCI	0.938
PCP	0.184
PCD	1.5
PCK	0.758
PCE	1.83
PCF	0.529
PCN	1.46
DCK	0.122
DCP	0.123
DCD	0.169
DCC	0.0618
DCA	0.643
DCL	0.334
DCF	0.161
DCH	0.784
DCN	1.24
DCM	0.579
DCG	0.334

Variant	enrichment factor
DCE	0.202
DCI	0.274
FAV	3.17
FAW	0.872
FAY	2.57
GAV	1.53
GAY	1.96
GAW	1.57
ECD	0.543
ECP	0.139
ECN	2.79
ECH	0.79
ECM	0.806
ECG	1.6
ECE	1.02
ECQ	1.6
ECA	0.386
ECL	1.3
ECC	0.439
ECK	1.31
ECF	0.545
ECI	0.691
PAV	1.13
PAW	0.732

Variant	enrichment factor
PAY	1.18
IAV	2.99
IAY	1.76
IAW	1.46
TCH	2.12
TCD	2.01
TCP	0.129
TCE	1.95
TCA	0.737
TCN	1.39
TCM	1.19
TCI	1.31
TCC	0.386
TCG	0.842
TCK	1.4
TCL	1.42
SCK	0.815
SCL	0.966
SCD	1.5
SCH	0.965
SCC	0.341
SCP	0.113
SCF	0.772
SCM	0.49

Variant	enrichment factor
SCA	0.695
SCE	1.88
SCG	0.993
SCI	0.805
SCN	0.526
VAV	3.41
VAW	1.25
VAT	1.66
VAY	3.23
TAT	1.87
TAY	2.34
TAV	1.67
TAW	1.66
MAY	1.52
MAW	1.51
MAV	1.8
WCH	0.252
WCM	0.772
WCI	0.579
WCP	0.434
WCG	0.869
WCF	1.54
WCC	1.74
WCD	0.549

Variant	enrichment factor
WCA	0.579
WCE	2.69
WCK	0.389
WCL	1.45
WCN	3.59
VCF	1.28
VCC	0.877
VCI	1.1
VCL	1.39
VCN	1.95
VCA	0.812
VCD	2.29
VCM	0.74
VCH	1.68
VCG	0.74
VCE	2.04
VCK	1.98
VCP	0.151
YAY	3.02
YAV	3.9
YAT	3.14
YAW	1.89
MCN	0.899
MCI	0.279

Variant	enrichment factor
MCP	0.133
MCF	0.772
MCQ	1.73
MCG	1.53
MCM	0.463
MCH	1.83
MCD	1.38
MCE	1.59
MCK	0.454
MCL	0.664
MCA	1.01
MCC	1.16
SAV	1.64
SAY	1.98
SAW	1.59
SAT	1.49
KAY	1.75
KAW	1.12
KAV	1.3
NAW	1.45
NAY	2.19
NAV	1.28

From the supplement of paper PMC10320760
